PubChem BioAssay AID651820 (National Center for Advancing Translational Sciences (NCATS), 2012)
The campaign covered roughly 340,000 compounds. About 12,000 (3.5%) were called active. Inconclusive results, whose numbers are uncertain, are shown with a selection of clear calls. Calls follow the shape of the dose curve; as a rule, active = well fitted inhibition curve with a large enough effect; inconclusive = small, poorly fitted or top-dose-only effect, or another doubt; inactive = no such curve, though single readings can be large or run the other way. Potencies of inconclusive entries are left out as doubtful fits.

Assay: qHTS Assay for Inhibitors of Hepatitis C Virus (HCV)
Details: Huh7.5.1 HCVcc-Cre (HCVcc is cell-culture hepatitis C virus) infection, luciferase reporter, 44 h; series mostly up to 41.8 µM
In short: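 Luciferase read-out (15 sec integration) after a 15 min room-temperature substrate step quantifies HCVcc-Cre infection. Cells, 1,000 per well, had compound added 4 h post-plating, then virus at ~0.5 moi, and were cultured 44 h.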
Potency is read from the fitted curve at half-maximal effect; tags tell the direction and shape of the fitted curve.

SMILES	Potency
COC(=O)c1cccc(Nc2nc3ccccc3nc2C)c1	inconclusive [inhibitor, partial curve]
CC(C)c1ccc(/C=C/C(=O)NCCC2=CCCCC2)cc1	inconclusive [inhibitor, single point]
Cc1nn(CCC(=O)O)c2nc(-c3cccnc3)cc(C(F)(F)F)c12	inconclusive [inhibitor, partial curve]
Cc1cc(C(C)(C)C)ccc1OCCn1ccnc1	inconclusive [inhibitor, single point]
COc1cc(C)ccc1OCCOCCOc1cc(C)c(C)cc1Br	inconclusive [inhibitor, single point]
CCc1ccccc1OCCCCCNCCO	inconclusive [inhibitor, full curve]
CCCOC(=O)c1c(NC(=O)C2CCCO2)sc(C(=O)OC)c1C (centres undefined)	inconclusive [inhibitor, partial curve, poor fit]
O=C(NNc1c(Cl)cc(Cl)cc1Cl)c1cccc([N+](=O)[O-])c1	active: 10 µM
S=c1nc(NCCc2ccccc2Cl)c2ccccc2[nH]1	inconclusive [inhibitor, single point]
O=C(c1ccc(Cn2cc(Cl)cn2)cc1)N1CCN(c2ccccc2)CC1	inconclusive [inhibitor, single point]
COc1cccc(CN2C(=O)C(C)N(C(=O)c3c(F)cccc3F)c3ccccc32)c1 (centres undefined)	active: 10 µM
O=C(NCc1ccco1)c1cccc(-c2nnc(-c3ccccc3)o2)c1	inconclusive [inhibitor, single point]
Fc1cccc(Cl)c1-c1nnc2ccc3ccccc3n12	active: 10 µM
CC(C)(C)n1ncc2c(=O)n(Cc3ccc(Cl)cc3Cl)cnc21	inconclusive [inhibitor, single point]
NC(=S)N=Nc1c(O)n(CCCl)c2ccccc12	inconclusive [inhibitor, single point]
Cn1c(=O)c2c([nH]c(OCc3ccc(Cl)cc3Cl)[n+]2Cc2ccc(F)cc2)n(C)c1=O	inactive
CN(C)S(=O)(=O)c1cccc(NC(=O)c2cc(-c3cccs3)nn2-c2cccc(Cl)c2)c1	inconclusive [inhibitor, partial curve]
NC(=O)c1ccc(C(F)(F)F)n(Cc2ccc(Cl)cc2)c1=O	inconclusive [inhibitor, single point]
CCOc1ncccc1C(=O)Oc1ccc2c(c1)OCO2	inactive
CCC(=O)N1CCN(c2cc3c(cc2F)c(=O)c(C(=O)O)cn3CC)CC1	inactive
COc1cc(O)sc1C=Nc1ccc(Cl)cc1Cl	inactive
COC(=O)C1=C(c2ccc(-c3ccccc3)c(F)c2)C[C@@H]2CC[C@H]1N2C(=O)NCCOc1ccccc1	active: 12.6 µM
COc1cc(/C=C2/NC(=O)N(CC(=O)Nc3cccc(C)c3)C2=O)ccc1OCC(N)=O	active: 10 µM
CCN(CC(=O)Nc1c(F)cccc1F)C(=O)CSc1ccccc1	inconclusive [inhibitor, single point]
Cc1nn(-c2ccccc2)c(C)c1C(=O)OCC(=O)Nc1ccccc1F	inconclusive [inhibitor, single point]

SMILES	Potency
COC(=O)[C@]1(C)N[C@H](CN(C)S(=O)(=O)c2ccc(-c3ccccc3)cc2)[C@@H]2C(=O)N(Cc3ccccc3)C(=O)[C@@H]21	inconclusive [inhibitor, single point]
CC(SCc1ccccc1)C(=O)Nc1ccc(F)cc1 (centres undefined)	inactive
CCOC(=O)c1sc2nc(CSc3ccccc3)nc(N3CCC(C(N)=O)CC3)c2c1C	inconclusive [inhibitor, single point]
CC1CCCCC1NC(=O)C1CCC(CNS(=O)(=O)c2ccccc2)CC1 (centres undefined)	inactive
C[C@H]1CN=C(Nc2ccccc2)N1CCc1ccc(F)cc1	inconclusive [inhibitor, partial curve]
CC1=NN(C(=O)CSCc2ccccc2)C(O)(c2ccc(Cl)cc2)C1 (centres undefined)	inactive
COc1cc(/C=C/C(=O)OCC(=O)NC(=O)NC(C)(C)C)ccc1O	inactive
Cc1ccccc1-c1nc(CN2CCC(C(=O)NC3CC3)CC2)c(C)o1	inconclusive [inhibitor, single point]
CC1=NN(c2ccccc2)C(=O)/C1=C\c1sccc1C	inactive
COc1ccc(CN(C(=O)/C=C/c2ccco2)C2CCS(=O)(=O)C2)cc1 (centres undefined)	inactive
N#C/C(=C(/O)COC(=O)CSc1ccc(Cl)cc1)c1nc2ccccc2[nH]1	inactive
O=C(Cc1ccccn1)c1ccccc1	inactive
CCOC(=O)N1CCN(C(=O)c2ccc(SC)cc2OC)CC1	inactive
CCc1ccc(C2NC(=S)NC3=C2C(=O)CCC3)cc1 (centres undefined)	inconclusive [inhibitor, single point]
O=C(CSc1nnc(CNc2ccc(Cl)cc2)o1)Nc1nc2c(s1)CCCC2	inconclusive [inhibitor, full curve, poor fit]
Cc1cc(C(=O)NC2CCCN(Cc3ccc(Cl)cc3)C2)n(C)n1 (centres undefined)	inconclusive [inhibitor, single point]
O=c1cc(N2CCN(c3ccccc3)CC2)[nH]c(=O)n1C1CCCCC1	inactive
COc1ccc(/C=N/NC(=O)c2ccc(CSc3nc(C)cc(C)n3)cc2)cc1O	inconclusive [inhibitor, partial curve, poor fit]
C/C(=N/Nc1ccnc2cc(Cl)ccc12)c1ccc(O)cc1	inconclusive [inhibitor, single point]
CCOC(=O)CSc1nc(Nc2ccc3c(c2)OCO3)c2ccccc2n1	inconclusive [inhibitor, partial curve]
CN1Cc2c(N3CCOCC3)nc(SCc3ccccc3)c(C#N)c2CC1(C)C	active: 10 µM
COc1ccccc1N(CC(=O)NCCSCc1ccccc1)S(=O)(=O)c1ccc(C)cc1	active: 25.1 µM
CCCC(=O)Nc1nc(C)c(-c2csc(Nc3ccccc3C)n2)s1	inactive
CCOc1ccccc1NC(=S)N(Cc1cc2ccc(C)cc2[nH]c1=O)CC1CCCN1CC (centres undefined)	inconclusive [inhibitor, partial curve]
O=C(COC(=O)c1ccc2c(c1)S(=O)(=O)c1ccccc1C2=O)NC1CC1	inactive

SMILES	Potency
COc1cccc(OCCNC(=O)c2ccc(C)cc2)c1	inactive
COc1ccc(C(=O)Cn2nnc(-c3ccccc3NC(=O)c3ccco3)n2)cc1	inconclusive [inhibitor, full curve]
O=C(Nc1ccc(F)cc1)C(=O)c1cn(CC(=O)N2CCOCC2)c2ccccc12	inactive
CN(C)C(=O)Nc1cccc(OC(=O)N(C)C)c1	inactive
CC1(C(=O)OCC(=O)Nc2ncc(Cl)cc2Cl)CC1(Cl)Cl (centres undefined)	inconclusive [inhibitor, single point]
COc1ccc(C(=O)Nc2nc3ccccc3[nH]2)cc1OC	inactive
CCOc1ccccc1CNC(=O)Cn1ccc2cc(S(=O)(=O)N3CCCC3)ccc21	inconclusive [inhibitor, single point]
COc1ccc(CN=C2NC(=O)CC(C(=O)Nc3ccc(Cl)cc3)S2)cc1 (centres undefined)	inconclusive [inhibitor, single point]
Cc1cc(C)cc(N2C(=O)C=CC2=O)c1	inconclusive [inhibitor, single point]
COc1ccc(-c2c3c(=O)n(C)c(=O)n(C)c3cn2-c2cccc(OC)c2)cc1	inconclusive [inhibitor, single point]
COc1cc(C(=O)N/N=C/c2ccc(OC(=O)c3cccc(C)c3)c(OC)c2)ccc1O	inactive
CC/C(=N\N1CCCCC1)c1c(O)[nH]c(=O)[nH]c1=O	inactive
CCn1c(=O)n(CC)c2cc(S(=O)(=O)Nc3c(C)cccc3C)ccc21	inconclusive [inhibitor, single point]
CCOc1cc(NC(=S)Nc2cccc(OC)c2)c(OCC)cc1NC(=O)C1CC1	inconclusive [inhibitor, partial curve]
Clc1ccc(-c2nc3ncccn3c2Nc2ccc3c(c2)OCO3)cc1	inactive
CCOc1ccccc1N1CC(C(=O)NC2CCCCCC2)CC1=O (centres undefined)	inconclusive [inhibitor, partial curve]
COC(=O)c1ccccc1CSc1nsc(/C=C/N(C)C)c1C#N	inactive
CCOC(=O)c1c(C)[nH]c(C)c1S(=O)(=O)N(C)CC(=O)Nc1ccccc1F	inconclusive [inhibitor, single point]
CCOc1ccc(/C=N/NC(=O)c2cc3c(OC)cc(OC)c(OC)c3[nH]2)cc1	active: 11.2 µM
CN1CCN(Cc2ccc(Sc3ccc(Cl)cc3)c([N+](=O)[O-])c2)CC1	inconclusive [inhibitor, partial curve]
Fc1ccccc1N=C1NN=C(c2ccccc2)CS1	inconclusive [inhibitor, single point]
Cc1ccc(-c2cc(C(F)(F)F)n3nc(C(=O)N4CCN5CCCC5C4)cc3n2)cc1 (centres undefined)	inconclusive [inhibitor, partial curve]
COc1ccc2c(c1)CC/C(=C/c1cc(OC)c(OC)c(OC)c1)C2=O	inconclusive [inhibitor, partial curve]
O=C(C[C@H]1C[C@H](C(=O)N2CCCCC2)[C@@]2(CCc3ccccc3)c3[nH]c4ccc(Cl)cc4c3CCN2C1=O)NCCCn1ccnc1	active: 25.1 µM
